{
  "source": "paper PMC4336329",
  "about": "(PLoS ONE, 2015)",
  "note": "Hit rate of the full screen: of about 310,000 compounds, about 14,000 (4.5%) showed an effect of 50% or more. Effects have a minus sign here. The list shows a part of the results.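 Further: peak tail current of the secondary pulse compared with the same well before compound.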",
  "data": [
    {"molecular_target": "human ether-à-go-go-related gene (hERG) potassium channel (human, UniProt Q12809)", "sequence (Q12809 whole entry, looked up)": "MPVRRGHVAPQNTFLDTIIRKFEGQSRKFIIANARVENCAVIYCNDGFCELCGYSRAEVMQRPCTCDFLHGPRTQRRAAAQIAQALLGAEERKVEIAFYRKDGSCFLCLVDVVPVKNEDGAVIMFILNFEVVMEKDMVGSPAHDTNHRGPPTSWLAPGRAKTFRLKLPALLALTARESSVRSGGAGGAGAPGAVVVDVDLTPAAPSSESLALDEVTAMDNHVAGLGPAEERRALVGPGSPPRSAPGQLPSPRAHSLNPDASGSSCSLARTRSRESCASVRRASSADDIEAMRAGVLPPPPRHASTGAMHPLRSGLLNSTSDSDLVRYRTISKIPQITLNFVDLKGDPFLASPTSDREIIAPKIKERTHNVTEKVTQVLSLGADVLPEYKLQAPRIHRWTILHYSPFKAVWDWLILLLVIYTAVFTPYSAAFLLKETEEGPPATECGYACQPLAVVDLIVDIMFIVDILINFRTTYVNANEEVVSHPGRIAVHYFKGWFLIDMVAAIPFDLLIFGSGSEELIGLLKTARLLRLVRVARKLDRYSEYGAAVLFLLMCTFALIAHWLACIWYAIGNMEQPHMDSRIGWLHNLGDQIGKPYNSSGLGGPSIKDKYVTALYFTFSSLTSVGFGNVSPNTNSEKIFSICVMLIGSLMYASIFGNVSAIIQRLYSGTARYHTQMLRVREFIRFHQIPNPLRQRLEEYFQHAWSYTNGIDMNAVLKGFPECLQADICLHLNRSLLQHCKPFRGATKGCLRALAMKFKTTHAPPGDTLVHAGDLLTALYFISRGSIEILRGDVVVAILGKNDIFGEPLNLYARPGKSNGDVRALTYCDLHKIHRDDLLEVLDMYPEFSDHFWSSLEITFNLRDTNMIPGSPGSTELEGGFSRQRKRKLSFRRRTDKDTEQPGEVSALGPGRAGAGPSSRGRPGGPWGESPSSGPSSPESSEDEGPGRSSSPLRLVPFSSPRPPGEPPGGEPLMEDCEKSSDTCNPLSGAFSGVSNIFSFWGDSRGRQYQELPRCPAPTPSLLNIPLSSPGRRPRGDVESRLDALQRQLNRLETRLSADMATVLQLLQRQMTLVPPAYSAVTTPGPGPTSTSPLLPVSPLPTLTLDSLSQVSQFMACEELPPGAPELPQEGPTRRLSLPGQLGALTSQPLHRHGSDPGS", "assay": "primary screen, population patch clamp on CHO cells stably expressing hERG", "units": {"hERG current change (%, negative = inhibition) at 10uM": "%"}, "values": [
      {"compound": "COc1ccc(CNC(=O)N[C@@H](CC(C)C)C(=O)O)cc1OC", "hERG current change (%, negative = inhibition) at 10uM": -0.247},
      {"compound": "COc1ccc(C(=O)NC(C)c2csc(C)n2)cc1OC1CCN(C(C)=O)CC1", "note": "(centres unmarked)", "hERG current change (%, negative = inhibition) at 10uM": 15},
      {"compound": "O=C(CCC1CCCN(C(=O)c2ccc3[nH]ccc3c2)C1)N1CCN(c2ccccn2)CC1", "note": "(centres unmarked)", "hERG current change (%, negative = inhibition) at 10uM": 21.6},
      {"compound": "O=C(NCC(c1ccco1)N1CCOCC1)c1ccc(Cl)cc1", "note": "(centres unmarked)", "hERG current change (%, negative = inhibition) at 10uM": -0.209},
      {"compound": "COc1ccc(-c2c(C#Cc3ccsc3)c3cc(-c4ccc5c(c4)OCO5)ccc3n2C)cc1", "hERG current change (%, negative = inhibition) at 10uM": 21.7},
      {"compound": "O=c1cc(-c2ccccc2)nc(N2CCN(Cc3ccc4c(c3)OCO4)CC2)[nH]1", "hERG current change (%, negative = inhibition) at 10uM": -6.28},
      {"compound": "CCn1c(SCC(=O)Nc2ccc(N(C)C)cc2)nnc1-c1ccco1", "hERG current change (%, negative = inhibition) at 10uM": -8.45},
      {"compound": "Cc1nnc(NC(=O)c2ccc(S(=O)(=O)N(C)Cc3ccccc3)cc2)o1", "hERG current change (%, negative = inhibition) at 10uM": -8.57},
      {"compound": "Cc1cc(C)cc(NC(=O)N2CCC(c3nc4ccccc4o3)CC2)c1", "hERG current change (%, negative = inhibition) at 10uM": -3.58},
      {"compound": "COc1ccc(CN2CCNC(=O)C2CC(=O)N(C)Cc2nccs2)cc1OC", "note": "(centres unmarked)", "hERG current change (%, negative = inhibition) at 10uM": 13.7},
      {"compound": "COc1cc(NC(=O)CSc2nnc3ccccn23)cc(OC)c1", "hERG current change (%, negative = inhibition) at 10uM": -7.11},
      {"compound": "O=C(Nc1ccc([N+](=O)[O-])cc1)c1cn(-c2ccccc2)nc1-c1cc2ccccc2o1", "hERG current change (%, negative = inhibition) at 10uM": 8.92},
      {"compound": "Oc1ccc(N=Cc2ccc(OCc3ccccc3)cc2)cc1", "hERG current change (%, negative = inhibition) at 10uM": 26.2},
      {"compound": "COc1ccc(OCC(O)CN2CCN(c3ccc(OC)cc3)CC2)cc1.Cl", "note": "(centres unmarked)", "hERG current change (%, negative = inhibition) at 10uM": -37.7},
      {"compound": "CCOC(=O)N1CCC(N2Cc3cccc(C(=O)NCc4ccc5c(c4)OCO5)c3C2=O)CC1", "hERG current change (%, negative = inhibition) at 10uM": -19.5},
      {"compound": "CCOc1ccc(NC(=O)Nc2nnc(CC(=O)NCc3ccccc3)s2)cc1", "hERG current change (%, negative = inhibition) at 10uM": 21.7},
      {"compound": "Nc1ccc(NC2C[C@@H](C(=O)O)NC2=O)cc1", "note": "(some centres unmarked)", "hERG current change (%, negative = inhibition) at 10uM": 13.2},
      {"compound": "C=CCC1(CC=C)CCCN1C(=O)C1CCC(=O)N(CCc2ccc(OC)cc2)C1", "note": "(centres unmarked)", "hERG current change (%, negative = inhibition) at 10uM": -18.6},
      {"compound": "O=C1C=C(Nc2ccc(F)cc2)c2ccccc2C1=O", "hERG current change (%, negative = inhibition) at 10uM": -0.176},
      {"compound": "COC(=O)CCC(=O)NC(=S)Nc1ccc(S(=O)(=O)Nc2cc(C)on2)cc1", "hERG current change (%, negative = inhibition) at 10uM": 22.2},
      {"compound": "Cc1ccccc1Nc1nc(N)nc(CSc2ccccc2)n1", "hERG current change (%, negative = inhibition) at 10uM": -21},
      {"compound": "O=C(CN1CCCCCC1)NN(Cc1ccccc1)c1ccccc1.O=C(O)C(=O)O", "hERG current change (%, negative = inhibition) at 10uM": -72.3},
      {"compound": "Cn1c(CC(=O)Nc2ccc(Cl)c(Cl)c2)nnc1SCC(=O)NCc1ccccc1", "hERG current change (%, negative = inhibition) at 10uM": 4.53}
    ]}
  ]
}
